# Some of the results follow. The list includes weakly bound sequences.
# Target: T1, MBP-FoxP3dN (UniProt Q99JB6)
# T1 sequence: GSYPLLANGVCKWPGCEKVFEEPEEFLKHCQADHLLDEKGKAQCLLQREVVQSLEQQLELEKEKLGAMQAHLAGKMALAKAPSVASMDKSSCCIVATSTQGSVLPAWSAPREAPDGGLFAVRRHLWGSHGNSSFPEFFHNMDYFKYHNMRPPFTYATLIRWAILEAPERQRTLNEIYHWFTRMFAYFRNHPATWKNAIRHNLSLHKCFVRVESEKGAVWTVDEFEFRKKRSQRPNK
# Assay: PD-seq (MBP pull-down with sequencing)
# Conditions: 20 mM Tris-HCl pH 7.5, 100 mM NaCl, 1.5 mM MgCl2, 0.4 uM protein, 0.1 uM dsDNA library, 30 min, room temperature, amylose pull-down; high values mean tight binding; double strand, one strand shown
row,Sequence,binding signal (RPM ratio (pull-down/input))
1,GATGATTGTTCTCCCAGCTGATGAATTGGAGAGATCGAGTAAACAAATTTTCCTAATCTTTCTGTTCAAGCGCCATCTAC,0.188
2,GATGATTGTTCTCCCAGCTGATGAATTGACCTTATCGAGTAAACAAATTTTCCTAATCTTTCTGTTCAAGCGCCATCTAC,0.446
3,GATGATTGTTCTCCCAGCTGATGAATTCGCCTTTTCGAGTAAACAAATTTTCCTAATCTTTCTGTTCAAGCGCCATCTAC,1.85
4,GATGATTGTTCTCCCAGCTGATGAATTTCCTGAGTCGAGTAAACAAATTTTCCTAATCTTTCTGTTCAAGCGCCATCTAC,0.196
5,GATGATTGTTCTCCCAGCTGATGAATTGCTATTTTCGAGTAAACAAATTTTCCTAATCTTTCTGTTCAAGCGCCATCTAC,1.47
6,GATGATTGTTCTCCCAGCTGATGAATTTCGGCTCTCGAGTAAACAAATTTTCCTAATCTTTCTGTTCAAGCGCCATCTAC,0.445
7,GATGATTGTTCTCCCAGCTGATGAATTACTCCGATCGAGTAAACAAATTTTCCTAATCTTTCTGTTCAAGCGCCATCTAC,0.187
8,GATGATTGTTCTCCCAGCTGATGAATTCCCAGTATCGAGTAAACAAATTTTCCTAATCTTTCTGTTCAAGCGCCATCTAC,0.359
9,GATGATTGTTCTCCCAGCTGATGAATTTATATAATCGAGTAAACAAATTTTCCTAATCTTTCTGTTCAAGCGCCATCTAC,0.88
10,GATGATTGTTCTCCCAGCTGATGAATTAGTTAGCTCGAGTAAACAAATTTTCCTAATCTTTCTGTTCAAGCGCCATCTAC,2.17
11,GATGATTGTTCTCCCAGCTGATGAATTCGCCGGGTCGAGTAAACAAATTTTCCTAATCTTTCTGTTCAAGCGCCATCTAC,0.219
12,GATGATTGTTCTCCCAGCTGATGAATTAGATGAATCGAGTAAACAAATTTTCCTAATCTTTCTGTTCAAGCGCCATCTAC,0.343
13,GATGATTGTTCTCCCAGCTGATGAATTAATCCATTCGAGTAAACAAATTTTCCTAATCTTTCTGTTCAAGCGCCATCTAC,0.276
14,GATGATTGTTCTCCCAGCTGATGAATTCTCCCGATCGAGTAAACAAATTTTCCTAATCTTTCTGTTCAAGCGCCATCTAC,0.194
15,GATGATTGTTCTCCCAGCTGATGAATTAATTGGATCGAGTAAACAAATTTTCCTAATCTTTCTGTTCAAGCGCCATCTAC,0.424
16,GATGATTGTTCTCCCAGCTGATGAATTGATTGGGTCGAGTAAACAAATTTTCCTAATCTTTCTGTTCAAGCGCCATCTAC,1.38
17,GATGATTGTTCTCCCAGCTGATGAATTTCGTCAGTCGAGTAAACAAATTTTCCTAATCTTTCTGTTCAAGCGCCATCTAC,0.401
18,GATGATTGTTCTCCCAGCTGATGAATTTAAGGTCTCGAGTAAACAAATTTTCCTAATCTTTCTGTTCAAGCGCCATCTAC,0.529
19,GATGATTGTTCTCCCAGCTGATGAATTATATTCTTCGAGTAAACAAATTTTCCTAATCTTTCTGTTCAAGCGCCATCTAC,0.495
20,GATGATTGTTCTCCCAGCTGATGAATTAAAGCCATCGAGTAAACAAATTTTCCTAATCTTTCTGTTCAAGCGCCATCTAC,1.45
21,GATGATTGTTCTCCCAGCTGATGAATTGCACTCGTCGAGTAAACAAATTTTCCTAATCTTTCTGTTCAAGCGCCATCTAC,1.01

row,Sequence,binding signal (RPM ratio (pull-down/input))
1,GATGATTGTTCTCCCAGCTGATGAATTGAGGTGTTCGAGTAAACAAATTTTCCTAATCTTTCTGTTCAAGCGCCATCTAC,0.749
2,GATGATTGTTCTCCCAGCTGATGAATTTGTTCCTTCGAGTAAACAAATTTTCCTAATCTTTCTGTTCAAGCGCCATCTAC,2.94
3,GATGATTGTTCTCCCAGCTGATGAATTCGACGCGTCGAGTAAACAAATTTTCCTAATCTTTCTGTTCAAGCGCCATCTAC,0.663
4,GATGATTGTTCTCCCAGCTGATGAATTATGAATGTCGAGTAAACAAATTTTCCTAATCTTTCTGTTCAAGCGCCATCTAC,1.04
5,GATGATTGTTCTCCCAGCTGATGAATTGGTTAACTCGAGTAAACAAATTTTCCTAATCTTTCTGTTCAAGCGCCATCTAC,0.469
6,GATGATTGTTCTCCCAGCTGATGAATTTGGCGGTTCGAGTAAACAAATTTTCCTAATCTTTCTGTTCAAGCGCCATCTAC,0.63
7,GATGATTGTTCTCCCAGCTGATGAATTCAGCTAATCGAGTAAACAAATTTTCCTAATCTTTCTGTTCAAGCGCCATCTAC,0.289
8,GATGATTGTTCTCCCAGCTGATGAATTACGACATTCGAGTAAACAAATTTTCCTAATCTTTCTGTTCAAGCGCCATCTAC,1.37
9,GATGATTGTTCTCCCAGCTGATGAATTTTATTAGTCGAGTAAACAAATTTTCCTAATCTTTCTGTTCAAGCGCCATCTAC,4.27
10,GATGATTGTTCTCCCAGCTGATGAATTGTGTCTATCGAGTAAACAAATTTTCCTAATCTTTCTGTTCAAGCGCCATCTAC,3.06
11,GATGATTGTTCTCCCAGCTGATGAATTAGTTGTGTCGAGTAAACAAATTTTCCTAATCTTTCTGTTCAAGCGCCATCTAC,6.21
12,GATGATTGTTCTCCCAGCTGATGAATTGCCTTACTCGAGTAAACAAATTTTCCTAATCTTTCTGTTCAAGCGCCATCTAC,0.701
13,GATGATTGTTCTCCCAGCTGATGAATTTAACACTTCGAGTAAACAAATTTTCCTAATCTTTCTGTTCAAGCGCCATCTAC,0.781
14,GATGATTGTTCTCCCAGCTGATGAATTTACTTTTTCGAGTAAACAAATTTTCCTAATCTTTCTGTTCAAGCGCCATCTAC,1.02
15,GATGATTGTTCTCCCAGCTGATGAATTCGGTGGATCGAGTAAACAAATTTTCCTAATCTTTCTGTTCAAGCGCCATCTAC,0.506
16,GATGATTGTTCTCCCAGCTGATGAATTTACTCTATCGAGTAAACAAATTTTCCTAATCTTTCTGTTCAAGCGCCATCTAC,0.459
17,GATGATTGTTCTCCCAGCTGATGAATTTCCCTGTTCGAGTAAACAAATTTTCCTAATCTTTCTGTTCAAGCGCCATCTAC,0.235
18,GATGATTGTTCTCCCAGCTGATGAATTACTGCTATCGAGTAAACAAATTTTCCTAATCTTTCTGTTCAAGCGCCATCTAC,0.645
19,GATGATTGTTCTCCCAGCTGATGAATTACTAAACTCGAGTAAACAAATTTTCCTAATCTTTCTGTTCAAGCGCCATCTAC,0.403
20,GATGATTGTTCTCCCAGCTGATGAATTGCTCCAGTCGAGTAAACAAATTTTCCTAATCTTTCTGTTCAAGCGCCATCTAC,0.32
21,GATGATTGTTCTCCCAGCTGATGAATTATACGGGTCGAGTAAACAAATTTTCCTAATCTTTCTGTTCAAGCGCCATCTAC,0.316

row,Sequence,binding signal (RPM ratio (pull-down/input))
1,GATGATTGTTCTCCCAGCTGATGAATTTTTTCATTCGAGTAAACAAATTTTCCTAATCTTTCTGTTCAAGCGCCATCTAC,0.258
2,GATGATTGTTCTCCCAGCTGATGAATTTTGACGTTCGAGTAAACAAATTTTCCTAATCTTTCTGTTCAAGCGCCATCTAC,0.933
3,GATGATTGTTCTCCCAGCTGATGAATTGGCCGTCTCGAGTAAACAAATTTTCCTAATCTTTCTGTTCAAGCGCCATCTAC,0.336
4,GATGATTGTTCTCCCAGCTGATGAATTATCTTCATCGAGTAAACAAATTTTCCTAATCTTTCTGTTCAAGCGCCATCTAC,0.359
5,GATGATTGTTCTCCCAGCTGATGAATTCAGCTGATCGAGTAAACAAATTTTCCTAATCTTTCTGTTCAAGCGCCATCTAC,0.532
6,GATGATTGTTCTCCCAGCTGATGAATTGCGTGGATCGAGTAAACAAATTTTCCTAATCTTTCTGTTCAAGCGCCATCTAC,1.08
7,GATGATTGTTCTCCCAGCTGATGAATTGTGCGTATCGAGTAAACAAATTTTCCTAATCTTTCTGTTCAAGCGCCATCTAC,3.11
8,GATGATTGTTCTCCCAGCTGATGAATTAAAGCCGTCGAGTAAACAAATTTTCCTAATCTTTCTGTTCAAGCGCCATCTAC,0.531
9,GATGATTGTTCTCCCAGCTGATGAATTAGTCGGTTCGAGTAAACAAATTTTCCTAATCTTTCTGTTCAAGCGCCATCTAC,0.644
10,GATGATTGTTCTCCCAGCTGATGAATTACAGAATTCGAGTAAACAAATTTTCCTAATCTTTCTGTTCAAGCGCCATCTAC,0.649
11,GATGATTGTTCTCCCAGCTGATGAATTTCCCACATCGAGTAAACAAATTTTCCTAATCTTTCTGTTCAAGCGCCATCTAC,0.334
12,GATGATTGTTCTCCCAGCTGATGAATTTTAATAGTCGAGTAAACAAATTTTCCTAATCTTTCTGTTCAAGCGCCATCTAC,1.14
13,GATGATTGTTCTCCCAGCTGATGAATTAATCCCGTCGAGTAAACAAATTTTCCTAATCTTTCTGTTCAAGCGCCATCTAC,0.261
14,GATGATTGTTCTCCCAGCTGATGAATTCCTCGATTCGAGTAAACAAATTTTCCTAATCTTTCTGTTCAAGCGCCATCTAC,0.24
15,GATGATTGTTCTCCCAGCTGATGAATTTTAATTATCGAGTAAACAAATTTTCCTAATCTTTCTGTTCAAGCGCCATCTAC,2.58
16,GATGATTGTTCTCCCAGCTGATGAATTAGTTAAATCGAGTAAACAAATTTTCCTAATCTTTCTGTTCAAGCGCCATCTAC,0.299
17,GATGATTGTTCTCCCAGCTGATGAATTTCAAACGTCGAGTAAACAAATTTTCCTAATCTTTCTGTTCAAGCGCCATCTAC,0.302
18,GATGATTGTTCTCCCAGCTGATGAATTGGTGATGTCGAGTAAACAAATTTTCCTAATCTTTCTGTTCAAGCGCCATCTAC,1.26
19,GATGATTGTTCTCCCAGCTGATGAATTGATGGATTCGAGTAAACAAATTTTCCTAATCTTTCTGTTCAAGCGCCATCTAC,0.504
20,GATGATTGTTCTCCCAGCTGATGAATTTAATTGCTCGAGTAAACAAATTTTCCTAATCTTTCTGTTCAAGCGCCATCTAC,3.76
21,GATGATTGTTCTCCCAGCTGATGAATTACTCTCTTCGAGTAAACAAATTTTCCTAATCTTTCTGTTCAAGCGCCATCTAC,0.279
